Test results reported in the supplement of paper PMC11417369.
± gives the standard deviation of the averaged measurements. This is one part of the list.

system: PfAP2-EXP AP2 domain (GST-tagged); test: gcPBM binding intensity (ln(normalized median fluorescence intensity)); higher = stronger DNA binding
Summary of the method: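 In this array assay, P. falciparum DNA-binding domains with a GST tag, expressed in E. coli, were applied for 1 h to primer-extended double-stranded 36-bp intergenic genomic probes and negative controls on an Agilent 4 × 180k array. Bound protein was visualised with Alexa488 anti-GST antibody at 488 nm. Binding intensity is the highest Masliner-normalised natural-log median intensity across replicate spots of either probe orientation.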

Row | Sequence | gcPBM binding intensity (ln)
1 | AACATATTTATATACACACACATATTTATATGAAAT [CACACA_site6268] | 8.39 ± 0.33
2 | GAGAGGATACATACATGTACATAAATATTTTATTTT [XGTACX_site5129] | 8.54 ± 0.28
3 | TTACTATTTCACTGTGCATGCAACAAAAATCTATCT [TGCATGCA_site808] | 10.2 ± 0.31
4 | ATTAGTTTATATGAATGATTTTTCTTTTTTTTTTTT [CACACA_negctrl_site88] | 8.19 ± 0.49
5 | ATATTTTGGGTGTTGTTTTTTTTTAAAACTCTTTAA [CACACA_negctrl_site1255] | 8.92 ± 0.34
6 | GATTTATATTTTAAAAGTACAAGTTAAAATAAAAGT [XGTACX_site7059] | 8.74 ± 0.33
7 | TTTGATTTTAATGTGTGTACACATTTATTTATATAA [XGTACX_site4806] | 8.56 ± 0.34
8 | ATATAATATCTGTATACACACATATTATATAATATT [CACACA_site5940] | 8.62 ± 0.4
9 | ATATAAGTATAATTATGTACTTATACTTATATAAAT [XGTACX_site5585] | 8.29 ± 0.37
10 | AATATAAGATTATTATGTACATAATAAATATGTATT [XGTACX_site4773] | 8.46 ± 0.36
11 | ATAATTATATGATGAGTGCACAATAAAAATATCGTT [GTGCAC_site9920] | 9.01 ± 0.014
12 | GGTCATCATCGGTATTGTACAAAAATGTGAAAATTA [XGTACX_site639] | 8.87 ± 0.37
13 | CATATTAATACAGAATGTACGGATAACAAACTGTTT [XGTACX_site7935] | 8.38 ± 0.22
14 | TTTTTTTTTTTGGTTACACACATTTGTATATTCTCA [CACACA_site134] | 8.69 ± 0.49
15 | CCATAACTCCTATGCACACATAAATATTACAGAGAT [CACACA_site5984] | 8.61 ± 0.37
16 | TTTTATTTAGGAGGTGCATGTAATACGGAACATAAT [TGCATGCA_site827] | 9.275 ± 0.035
17 | CATATAATAAATAATACACACATATTGGAAATATAT [CACACA_site3212] | 8.57 ± 0.23
18 | AAAGGTATATATGTGTGTACATATATATATATATAT [XGTACX_site5629] | 10 ± 0.4
19 | TTTATTTATTTATATTTTTTTATATAATTTATATAT [GTGCAC_negctrl_site301] | 8.31 ± 0.29
20 | TTTTGAGAAAAAATAAAATAATAAATAAAAATACAT [XGTACX_negctrl_site66] | 8.7 ± 0.33
21 | AATACAATTGAAAATTGTACTTTGTTTTTTATAAAT [XGTACX_site4080] | 8.17 ± 0.27
22 | CACATTTCTGTAGTTGCATGTAGAAAAAAAAAAAAA [TGCATGCA_site810] | 8.72 ± 0.2

Row | Sequence | gcPBM binding intensity (ln)
23 | TTTTTTTTTTTTGTAACATGCAAACAACAATATGGG [TGCATGCA_site695] | 8.76 ± 0.45
24 | TATGTTCCGAAGGTTGTACACACATAGAAATATACA [CACACA_site9285] | 8.81 ± 0.43
25 | GGGAGGATATTACACAGTACCCAGGAAATCTACGGA [XGTACX_site4874] | 8.78 ± 0.4
26 | ATGTAATTGTATACATGTACGCAAACACAAAAGCAT [XGTACX_site6771] | 9.14 ± 0.3
27 | AAGGAAAAAACAAATACACACAAAAACGCATTATAA [CACACA_site3466] | 8.96 ± 0.48
28 | ATGAACTTATTTTAGTGTACTAAAAAATATGACTTC [XGTACX_site470] | 8.41 ± 0.19
29 | TTTTGTTCATACAAATTGGAACAAGACAAAAATATA [XGTACX_negctrl_site327] | 8.56 ± 0.38
30 | TACATAATTTTAATCACACACAAACAAACACATACA [CACACA_site194] | 8.85 ± 0.45
31 | GTAAGTATATATAATAGTACATATATATTAATATAT [XGTACX_site4314] | 8.46 ± 0.35
32 | TATCATTTTGAAGTATGTACTTATTTTATTAAAATA [XGTACX_site7784] | 8.51 ± 0.27
33 | TAAATACATAAATACACACACATATATATATATATA [CACACA_site5549] | 10.2 ± 0.35
34 | ATTATATTAAAATATTCACACACTAACGTAAATCAT [CACACA_site8887] | 8.19 ± 0.42
35 | TAGGTCATATTTTTTGCACACAAAAAAAAATATAAA [CACACA_site3380] | 8.52 ± 0.11
36 | CACCTCAATATTCACATACACACAATATCATCGAAG [CACACA_site1675] | 8.7 ± 0.49
37 | TTTTTCCAATCAGATGCATGTTACTATATTTGGTTC [TGCATGCA_site52] | 8.79 ± 0.38
38 | TGTATAAGGTTTTTACGTTTTGAAGGATGTATTGTT [CACACA_negctrl_site1245] | 8.59 ± 0.6
39 | TTTATTATCAAGATTGCACACCCTTATGAACTTTTT [CACACA_site3166] | 8.91 ± 0.43
40 | TAATTTACACCTACGTGTACACACAAAAATATGTTT [XGTACX_site1868] | 8.7 ± 0.3
41 | ACAAAAAAAAAGGAAACACACAAAAAAAAAAAATAA [CACACA_site3523] | 8.44 ± 0.59
42 | ACCTATAAAAAATAATGTACAGGAAGAAATATAAGG [XGTACX_site5822] | 9.04 ± 0.59
43 | ACTATATTTCTATAATGTACAAAAATAAATCATATG [XGTACX_site3337] | 8.49 ± 0.45
44 | AAGATCATATATTCGTGGGTATAAAAAGTTATAATA [TGCATGCA_negctrl_site439] | 8.38 ± 0.57
